The results in this text go back to the antibiotic and cytotoxicity screens of Wong et al. (2023).

SMILES strings stand for the structures. This is one part of the list.

For this experiment, the system named is HepG2. The experiment is described as follows: cytotoxicity call (relative viability < 0.9). Conditions: 10 µM.
In the case of `CNC(=O)C[C@H]1CC[C@@H]2[C@H](COC[C@H](O)CN2C(=O)c2ccccn2)O1`, the cytotoxicity call is “inactive”.
The value for `COCC(=O)Nc1ccc2c(c1)C(=O)N(C)C[C@H](OC)[C@H](C)CN(Cc1cccc(F)c1)[C@@H](C)CO2` was “inactive”.
As for `CC(=O)N[C@@H](CCC(=O)O)C(=O)O`, the cytotoxicity call is “inactive”.
In the case of `Cc1ccc(-c2ccc3c(c2)O[C@@H](CN(C)C(=O)Nc2ccc(C(F)(F)F)cc2)[C@H](C)CN([C@H](C)CO)S3(=O)=O)cc1` it was “inactive”.
In the case of `COc1ccc(C#Cc2cnc3c(c2)C(=O)N([C@H](C)CO)C[C@@H](C)[C@@H](CN(C)CC2CCOCC2)O3)cc1` it was “inactive”; in that of `Cc1noc(C)c1S(=O)(=O)N(C)C[C@H]1Oc2ccc(NS(C)(=O)=O)cc2CC(=O)N([C@H](C)CO)C[C@@H]1C`, “inactive”; in that of `CC(C)CC#Cc1ccc2c(c1)O[C@@H](CN(C)C(=O)Cc1cccnc1)[C@H](C)CN([C@H](C)CO)S2(=O)=O`, “inactive”.
In the case of `C[C@@H]1CCCCO[C@H](CN(C)S(=O)(=O)c2ccc(Cl)cc2)[C@H](C)CN([C@@H](C)CO)C(=O)c2cc(NS(=O)(=O)c3cccs3)ccc2O1` it was “inactive”; in that of `COc1cc2c(cc1OC)CN(C(=O)[C@H]1[C@@H]3C(=O)O[C@@H](c4ccccc4)[C@@H](c4ccccc4)N3[C@@H](c3ccc(OCCO)cc3)[C@]13C(=O)Nc1ccc(C#CCCO)cc13)CC2`, “inactive”.
